Experimental data as given in the supplement of paper PMC11283458.
This is one part of the list. Many values rest on one well or one pass, so single values are uncertain.

Key:
[1] = tested on: Asph alternative exon (endogenous); test: delta PSI of alternative exon relative to 0.4% DMSO control (RT-PCR) (percentage points); higher = more exon inclusion; conditions: concentration: not stated (optimised per compound); Neuro-2a
Procedure: (§1)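 Reads PSI of the Mef2d reporter microexon and of endogenous mouse neural alternative exons. dPSI is relative to the 0.4% DMSO control, single replicate.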

[2] = tested on: Mast2 alternative exon (endogenous); test: as above; conditions: concentration: not stated (optimised per compound); Neuro-2a
Procedure: as §1

[3] = tested on: Trappc9 microexon (endogenous); test: as above; conditions: concentration: not stated (optimised per compound); Neuro-2a
Procedure: as §1

[4] = tested on: Zdhhc20 alternative exon (endogenous); test: as above; conditions: concentration: not stated (optimised per compound); Neuro-2a
Procedure: as §1

[5] = tested on: Mef2d microexon dual Nano/Firefly luciferase splicing reporter in Neuro-2a cells; test: B-score of Firefly/Nano luminescence ratio, V1 Mef2d microexon reporter (B-score (plate-normalised)); higher = more Mef2d microexon inclusion; conditions: 24 h
[6] = tested on: Mef2d microexon dual Nano/Firefly luciferase splicing reporter in Neuro-2a cells; test: B-score of Nano/Firefly luminescence ratio, V2 Mef2d microexon reporter (B-score (plate-normalised)); higher = more Mef2d microexon inclusion; conditions: 24 h
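Throughout, for B-score of Nano/Firefly luminescence ratio, V2 Mef2d microexon reporter: compounds at 4 µM (PKI library 0.5 µM) on Dox-inducible N2A Flp-In cells with PEST-tagged luciferases, 384-well plates, B-score from per-plate median-polish residual over median absolute residual.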
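Throughout, for delta PSI of alternative exon relative to 0.4% DMSO control (RT-PCR): exons read include endogenous Mef2d, Mast2, Ergic3 and Trappc9 microexons plus the longer neural-regulated Zdhhc20, Mgrn1 and Asph cassette exons, alongside the reporter microexon.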

Row | SMILES | delta PSI of alternative exon [1] | delta PSI of alternative exon [2] | delta PSI of alternative exon [3] | delta PSI of alternative exon [4] | B-score [5] | B-score [6]
1 | COc1cc(OC)c(/C=C2/C(=O)Nc3ccccc32)c(OC)c1 | -4.6 | -6.78 | 0.0849 | -3.56 | – | –
2 | O=c1c(Cc2ccccc2Cl)c(-c2ccccc2)oc2ccccc12 | 2.77 | – | -1.31 | 1.92 | – | –
3 | CCOC(=O)c1cnn2c1nc(N1CCCC1)c1ccccc12 | 1.01 | 0.562 | -1.29 | 1.32 | – | –
4 | Cc1noc(C)c1C(=O)ON=C(N)c1ccc(OC(F)(F)F)cc1 (4 µM) | – | – | – | – | 20.4 | 1.73
5 | O=C(Nc1ccc(Cl)c(Cl)c1)n1ccc(C(F)(F)F)n1 (4 µM) | – | – | – | – | 15.6 | -0.001
6 | O=[N+]([O-])c1ccc(Oc2ccc(-c3nnco3)cc2)c2ccncc12 (4 µM) | – | – | – | – | -2.63 | -3.87
7 | CC(=O)Nc1ccc([C@H](C)C(=O)Nc2ncc(C(C)C)s2)cc1 | -12.2 | – | 2.8 | -9.03 | – | –
8 | Cc1onc(-c2c(Cl)cccc2Cl)c1C(=O)SCC(=O)Nc1ccc(Cl)cc1 | -6.87 | -2.25 | -0.43 | -5.45 | – | –
9 | COC(=O)/C=C1/OC(c2ccc(Cl)cc2)=CC1=O (4 µM) | – | – | – | – | -2.06 | -6.46
10 | O=C(C=Cc1cc([N+](=O)[O-])ccc1Sc1ccc(C(F)(F)F)cn1)Nc1ccccc1 | 1.31 | – | -0.222 | 0.483 | – | –
11 | COc1ccc(C(=O)C=C(C(=O)c2ccccc2)c2ccccc2)cc1CN1CCOCC1 | -5.77 | – | -0.969 | -7.35 | – | –
12 | COc1ccc(NC(=O)CSC(=O)c2c(-c3c(Cl)cccc3Cl)noc2C)cc1 | -12.6 | -9.19 | -1.83 | -11.6 | – | –
13 | COc1ccc(C2C3CCCC=C3C(C#N)=C(N)C2(C#N)C#N)c(OC)c1 (stereo not drawn) (4 µM) | – | – | – | – | -1.6 | -5.8
14 | O=c1[nH]c(-c2ccccn2)nc2sc(-c3ccccc3)cc12 (4 µM) | – | – | – | – | 9.9 | -17.5
15 | CCN(CC)C(=S)NC(=S)c1ccc(C)cc1 | -8.03 | – | -3.6 | -8.97 | – | –
16 | Cc1cc(NC(=O)Nc2cc(Cl)cc(Cl)c2)on1 | 0.906 | – | -2.12 | -0.324 | – | –

Row | SMILES | delta PSI of alternative exon [1] | delta PSI of alternative exon [2] | delta PSI of alternative exon [3] | delta PSI of alternative exon [4] | B-score [5] | B-score [6]
17 | O=[N+]([O-])c1ccc(N2CCCN(C(=S)Nc3ccc(Cl)cc3Cl)CC2)nc1 | 1.24 | – | 0.172 | 6.13 | – | –
18 | N[C@@H](CSC(c1ccccc1)(c1ccccc1)c1ccccc1)C(=O)O [S-Trityl-L-cysteine] | -5.65 | -11.6 | -1.06 | -7.11 | – | –
19 | COc1cc(/C=C/C(=O)N2CCC=CC2=O)cc(OC)c1OC [Piperlongumine] | -8.71 | -8.38 | -0.631 | -14.7 | – | –
20 | Cc1onc(-c2c(Cl)cccc2Cl)c1C(=O)SCC(=O)Nc1ccc(F)cc1 | -10.6 | – | -2.21 | -10.8 | – | –
21 | O=C(C=c1[nH]c(=O)c(=Cc2ccccc2O)s1)c1cccs1 | -6.22 | – | -0.208 | -5.98 | – | –
22 | O=C(Nc1ccc(-n2nc(C(F)(F)F)cc2-c2cccs2)cc1)c1cccs1 | 2.35 | 4.2 | -1.58 | 2.42 | – | –
23 | N#CC1=C(N)Oc2ccc3ccccc3c2C1c1cccc(F)c1 (stereo not drawn) | -1.37 | -2.12 | -0.783 | -0.41 | – | –
24 | N#CC1(C#N)C(c2ccc(Br)s2)C(C(=O)c2ccccc2)N2c3ccccc3C=CC21 (stereo not drawn) | -4.87 | -0.914 | -2.86 | -7.98 | – | –
25 | O=C(NCCNc1ccc(C(F)(F)F)cn1)Nc1ccccc1Cl | -24.1 | – | -0.969 | -19.7 | – | –
26 | Nc1ccc(S(=O)(=O)Nc2cccc(C(F)(F)F)c2)cc1 | 2.52 | 3.84 | -1.08 | 4.2 | – | –
27 | CNC(=S)N/N=C/c1ccccc1O | 1.67 | – | -1.03 | 4.36 | – | –
28 | Nc1nc(=S)c2ncn([C@@H]3O[C@H](CO)[C@@H](O)[C@H]3O)c2[nH]1 [Thioguanosine] | -14.3 | -30.5 | 0.445 | -11.4 | – | –
29 | CC(=O)OC1(C(=O)/C=C/c2ccccc2)CCCCC1 | -7.92 | – | -4.1 | -9.17 | – | –
30 | O=C1C=CC(=O)N1c1ccc(I)cc1Cl (4 µM) | – | – | – | – | 13.7 | 1.79
31 | Nc1nc(Nc2ccc(S(N)(=O)=O)cc2)nn1C(=S)Nc1c(F)cccc1F [Cdk1/2 Inhibitor III] | 2.81 | -11.3 | 1.83 | 14.5 | – | –
